Experimental data published in PMC7819943, “Rice protein-binding microarrays: a tool to detect cis-acting elements near promoter regions in rice”.
The list shows a part of the results.

target: T1, OsWOX13 (Oryza sativa, UniProt Q5QMM3 1-267); test: protein-binding microarray (RPBM); PBS, 2% BSA, 51.3 ng/ul salmon testes DNA, 50 uM zinc acetate, 200 nM TF, 25 C, 1 h; high values mean tight binding; settings: protein: recombinant; tags: N-terminal polyhistidine and DsRed monomer fusion (pET32a); label: CyDye5-dUTP incorporated in the synthesized complementary strand; 3' TTTTT single-stranded linker to array surface; dsDNA, one strand shown
T1 sequence: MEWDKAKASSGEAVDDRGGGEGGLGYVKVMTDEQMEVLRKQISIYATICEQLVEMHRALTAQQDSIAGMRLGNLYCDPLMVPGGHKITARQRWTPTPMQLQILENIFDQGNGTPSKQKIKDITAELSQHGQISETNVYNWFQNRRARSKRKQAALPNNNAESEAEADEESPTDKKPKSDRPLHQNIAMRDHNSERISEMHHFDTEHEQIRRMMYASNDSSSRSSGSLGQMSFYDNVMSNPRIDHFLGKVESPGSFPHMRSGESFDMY
How it was run: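 A custom Agilent array was converted to double-stranded form by primer extension with Cy5-dUTP and blocked with 2% BSA. Protein at 200 nM in PBS with 2% BSA, salmon testes DNA and 50 µM zinc acetate was applied for 1 h at 25 °C, followed by washing. The proteins were polyhistidine–DsRed N-terminal fusions of transcription factors, expressed in E. coli BL21-CodonPlus and Ni–NTA-purified. The binding signal is per-feature fluorescence intensity (arbitrary units) from an Axon 4000B scanner.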

Row | Sequence | binding signal
1 | TTAGTTAACTAATCTAATCTTAGTTTATAAAATTTTAGTGCGGAGTCACCTAGTGCAG | 14000 fluorescence intensity (a.u.)
2 | TATAAACAGGTGCTAATTAAAATTAAGAATTTTGAAAGCACGGAGTCACCTAGTGCAG | 42100 fluorescence intensity (a.u.)
3 | GTAGATAATAGATAAATAGATAATAGATAACAAATAAAATCGGAGTCACCTAGTGCAG | 6330 fluorescence intensity (a.u.)
4 | CTCCTAAATTTAACTTCAAGGATGAAGCTATGGAGCTATCCGGAGTCACCTAGTGCAG | 5080 fluorescence intensity (a.u.)
5 | TGCTGATTGGTATGCATAGAGTATGTATGGAAACCTTGTGCGGAGTCACCTAGTGCAG | 56600 fluorescence intensity (a.u.)
6 | AACAAGATTGTGATTCATACATCTGCATCTTATTTTGTATCGGAGTCACCTAGTGCAG | 3650 fluorescence intensity (a.u.)
7 | GCCTTTGCGTGATTGGCGACGCCTCTCCTCCCTCCTTCCACGGAGTCACCTAGTGCAG | 28200 fluorescence intensity (a.u.)
8 | TATCTAAATGACATGACTCACTTAGATCCTAATAGGACATCGGAGTCACCTAGTGCAG | 7670 fluorescence intensity (a.u.)
9 | TTATTTTAGATTGGGTAAAATTGTGTTTGTTCACTTTGAACGGAGTCACCTAGTGCAG | 12100 fluorescence intensity (a.u.)
10 | GTTAATAGATTTCGATAGGCAACTAAAACATTTGGATAGCCGGAGTCACCTAGTGCAG | 29400 fluorescence intensity (a.u.)
11 | ATACATGCAAACACGATTGATTATTCAACAAATTGAGCCTCGGAGTCACCTAGTGCAG | 12300 fluorescence intensity (a.u.)
12 | GAATTGTAGTAATTAAATTAATTAAACCTACTAAACCCATCGGAGTCACCTAGTGCAG | 27700 fluorescence intensity (a.u.)
13 | AGCCTAATCATGTTCTTCTGGGTTAATTCATCGTATTGTTCGGAGTCACCTAGTGCAG | 8710 fluorescence intensity (a.u.)
14 | AAATGATGAAGGATTGTAATTGGTTGATTTCGTCTTATTTCGGAGTCACCTAGTGCAG | 14300 fluorescence intensity (a.u.)
15 | TCGACAATCACAGTAAACCAATATAATAAATACTCCCTCCCGGAGTCACCTAGTGCAG | 6400 fluorescence intensity (a.u.)
16 | ATGAATAAAATTTATTCAATTAACTATGTGTTACATCGAGCGGAGTCACCTAGTGCAG | 21500 fluorescence intensity (a.u.)
17 | AATCCAATCAATCGCGATTCGATCATCTGTTCCACCCGCCCGGAGTCACCTAGTGCAG | 34400 fluorescence intensity (a.u.)
18 | GACGTGACAATTAATTATTTAACACTCGCTTTCTATAATACGGAGTCACCTAGTGCAG | 19000 fluorescence intensity (a.u.)
19 | CAGGTTGATTGCTTTATATTTTCCAGTGGATTAGTGCAATCGGAGTCACCTAGTGCAG | 49300 fluorescence intensity (a.u.)
20 | ATTAATAGACAGCACCATAAAGATATGCACGATAAGGTTTCGGAGTCACCTAGTGCAG | 27800 fluorescence intensity (a.u.)
21 | TGTGAATTGATTGAAGTCTCAAGGATTAGTATAGTTCTTGCGGAGTCACCTAGTGCAG | 43000 fluorescence intensity (a.u.)

Row | Sequence | binding signal
22 | CACCAATCACATTAATATGATAATTCATTCACCTACCTCGCGGAGTCACCTAGTGCAG | 39700 fluorescence intensity (a.u.)
23 | TTTAAATTTATAATAATTAAAACTCAATTAATCATACGTTCGGAGTCACCTAGTGCAG | 20900 fluorescence intensity (a.u.)
24 | AATGATAATCATGTTTGATTTTAAAATCTCAATGACAATACGGAGTCACCTAGTGCAG | 20900 fluorescence intensity (a.u.)
25 | CTGCAAATTTGCCTGGTAATTAATTTGTCGAAAATGGTTACGGAGTCACCTAGTGCAG | 38400 fluorescence intensity (a.u.)
26 | ACACCAATTACCACGAAACCACAACCAGAATCACCCAACGCGGAGTCACCTAGTGCAG | 6880 fluorescence intensity (a.u.)
27 | AGCTTAAACAAATCTAAATTCCAATCTGTTCGTAAACGTTCGGAGTCACCTAGTGCAG | 5280 fluorescence intensity (a.u.)
28 | CAGGATAGATTTGTTGCATGCAATTGTGTGGCGCGGCAATCGGAGTCACCTAGTGCAG | 17800 fluorescence intensity (a.u.)
29 | CATATTTTGTCAATCTTATAGTCTAGTTATATAATAGCTCCGGAGTCACCTAGTGCAG | 8760 fluorescence intensity (a.u.)
30 | ACCCAGATGATGATCAACTGCAATGCATATAACTAGTAACCGGAGTCACCTAGTGCAG | 3180 fluorescence intensity (a.u.)
31 | ATGAGTCAATTTGTGTGACCTGACAAGTCTCCTAATGCACCGGAGTCACCTAGTGCAG | 6270 fluorescence intensity (a.u.)
32 | CAACCACAGATCAATCAAATGAAAGTATGTTCATATGCGCCGGAGTCACCTAGTGCAG | 5680 fluorescence intensity (a.u.)
33 | GATATGCTCGTAATTACTTTAAAAGTAATTTTATTTTAAACGGAGTCACCTAGTGCAG | 4180 fluorescence intensity (a.u.)
34 | TTCTAATATATTGATGTTAATGAATCTAGACATACATATCCGGAGTCACCTAGTGCAG | 6130 fluorescence intensity (a.u.)
35 | GAAATAAATCACATGAATTTTATAGGAATCACTCTTGGGTCGGAGTCACCTAGTGCAG | 4140 fluorescence intensity (a.u.)
36 | ATCGAAATGATAGATATAAGTACCGCAAAGATGAAGCTACCGGAGTCACCTAGTGCAG | 4060 fluorescence intensity (a.u.)
37 | ATTAATTGATGCTTTGCTTGATTACTTGAGTCAGATCCAGCGGAGTCACCTAGTGCAG | 63200 fluorescence intensity (a.u.)
38 | TTAACTTGCCAATCAAACATGTAGGCAACTGCTGGACTCACGGAGTCACCTAGTGCAG | 23400 fluorescence intensity (a.u.)
39 | GATTTAATTATAAGGGTCAGGCGTGCACATGCAGCACCCGCGGAGTCACCTAGTGCAG | 3880 fluorescence intensity (a.u.)
40 | CAGTGACAGTGACTGTACTCTTGTACTCTTACAACCGCCGCGGAGTCACCTAGTGCAG | 5660 fluorescence intensity (a.u.)
41 | GTATTAATTTAACATATGCTTTAATTTCCTATGTATTAGACGGAGTCACCTAGTGCAG | 16400 fluorescence intensity (a.u.)
42 | TTGAATTGGTGATATAAATCCGTGCAAGATTCAAGAGCCACGGAGTCACCTAGTGCAG | 3510 fluorescence intensity (a.u.)
